# Test results as given in publication PMC4336329 (PLoS ONE, 2015).
# Out of some 310,000 compounds screened, about 2,200 (0.71%) showed an effect of 50% or more. Effects have a minus sign here. The list shows a part of the results.
# Target: human ether-à-go-go-related gene (hERG) potassium channel (human, UniProt Q12809)
# Assay: primary screen, population patch clamp on CHO cells stably expressing hERG
# Chain of human ether-à-go-go-related gene (hERG) potassium channel (Q12809 whole entry, looked up): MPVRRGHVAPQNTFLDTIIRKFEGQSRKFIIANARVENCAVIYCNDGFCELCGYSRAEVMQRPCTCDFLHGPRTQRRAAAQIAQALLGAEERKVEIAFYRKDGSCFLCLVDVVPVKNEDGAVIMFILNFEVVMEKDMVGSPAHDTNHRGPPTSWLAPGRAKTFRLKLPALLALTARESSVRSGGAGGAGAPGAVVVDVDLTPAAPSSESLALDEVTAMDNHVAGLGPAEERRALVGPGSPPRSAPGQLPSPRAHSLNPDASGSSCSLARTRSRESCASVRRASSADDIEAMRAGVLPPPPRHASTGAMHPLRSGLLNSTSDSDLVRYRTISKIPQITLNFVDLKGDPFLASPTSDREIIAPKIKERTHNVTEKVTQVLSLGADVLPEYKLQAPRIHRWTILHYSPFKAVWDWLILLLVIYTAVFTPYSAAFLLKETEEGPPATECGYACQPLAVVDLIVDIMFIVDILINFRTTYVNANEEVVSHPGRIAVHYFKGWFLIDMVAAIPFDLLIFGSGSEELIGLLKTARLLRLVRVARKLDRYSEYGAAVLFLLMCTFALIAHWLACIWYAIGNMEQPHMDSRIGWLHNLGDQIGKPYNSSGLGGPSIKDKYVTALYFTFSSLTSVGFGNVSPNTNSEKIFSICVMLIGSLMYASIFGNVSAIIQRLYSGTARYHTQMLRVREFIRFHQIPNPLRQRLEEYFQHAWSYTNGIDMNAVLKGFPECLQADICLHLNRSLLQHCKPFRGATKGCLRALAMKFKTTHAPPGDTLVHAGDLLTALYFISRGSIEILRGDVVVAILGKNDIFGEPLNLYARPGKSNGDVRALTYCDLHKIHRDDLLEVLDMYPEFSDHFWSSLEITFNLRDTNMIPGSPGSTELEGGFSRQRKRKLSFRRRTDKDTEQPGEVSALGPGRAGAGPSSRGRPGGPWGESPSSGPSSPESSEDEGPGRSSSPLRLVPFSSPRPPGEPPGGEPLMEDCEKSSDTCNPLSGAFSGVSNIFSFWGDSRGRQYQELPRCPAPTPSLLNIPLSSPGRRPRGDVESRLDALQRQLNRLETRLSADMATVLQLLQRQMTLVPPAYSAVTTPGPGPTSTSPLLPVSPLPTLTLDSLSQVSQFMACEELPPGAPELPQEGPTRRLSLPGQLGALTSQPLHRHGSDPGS
row,SMILES,"hERG current change (%, negative = inhibition) at 1uM [%]"
1,O=C(CSc1ccc2nnc(-c3ccc(Cl)cc3)n2n1)N1CCc2ccccc21,4.23
2,COC(=O)CCC(=O)OC1(C)C(=O)C2=CN(CCCCO)C(c3ccc(OC)cc3)=CC2=C(Br)C1=O (centres unmarked),7.75
3,COCCn1c(C)cc(C(=O)COC(=O)CCS(=O)(=O)c2ccc(C)cc2)c1C,-4.18
4,Cc1ccc(NC(=S)NNC(=O)c2ccccc2O)c(C)c1,20.9
5,Cc1c(C)c2c(OCC(=O)N3CCC[C@H]3C(=O)O)cc3c(c2oc1=O)CCC(C)(C)O3,12.3
6,CC(C)(C)NS(=O)(=O)c1ccc(CCC(=O)N2CCOCC2)cc1,-5.42
7,CCC1CCc2sc(C(=O)N3CCN(c4ccccn4)CC3)cc2C1 (centres unmarked),-2.83
8,O=C(Nc1ccc2c(c1)OCCO2)C1CCN(S(=O)(=O)Cc2ccccc2)CC1,11.6
9,CCOc1c(Br)cc(CNC2CCCCCCC2)cc1OC.Cl,5.48
10,O=[N+]([O-])c1cc(Cl)c(Cl)cc1Cl,9.77
11,O=C1CSC(c2ccncc2)N1Cc1ccccc1 (centres unmarked),20.7
12,Cc1ccc(C2=NN3C(C2)c2ccccc2OC32C(=O)Nc3ccccc32)cc1 (centres unmarked),6.78
13,O=C(NCc1cccnc1)C1CCCN(S(=O)(=O)c2ccccc2)C1 (centres unmarked),6.03
14,Nc1ccc(C(=O)Oc2ccc([N+](=O)[O-])cc2)cc1,14.1
15,COc1cccc(N2CCN(C(=O)CSc3ccc(F)cc3)CC2)c1,-4.49
16,COc1ccc(NCc2ccc([N+](=O)[O-])s2)c(OC)c1,-2.19
17,COc1ccc(Nc2nc(C)c3ccccc3n2)cc1,-4.17
18,CC(=O)/C(C[N+]1(C)CCCCC1)=N\O.[I-],15.1
19,CCOc1ccc(C(=O)NC(C(=O)NCCc2ccc(OC(F)F)cc2)C(C)C)cc1 (centres unmarked),-21.9

row,SMILES,"hERG current change (%, negative = inhibition) at 1uM [%]"
1,CNC(=O)c1ncoc1-c1ccc(Cl)cc1,7.99
2,CN(C(=O)c1ccc(NC(=O)Cc2ccc(NC(=O)C3CCN(C(=O)C4CCCC4)CC3)cc2)cc1)C1CC1,20.8
3,Cn1c(=O)c2c(ncn2CC(COCc2ccc(Cl)cc2)OCc2ccc(Cl)cc2)n(C)c1=O (centres unmarked),-4.17
4,Cc1cc(OCC(=O)NCCCN(C)C)cc(C)c1Br,15.5
5,CCC1(c2ccccc2)C(=O)NCNC1=O,3.37
6,CCOc1ccc(N(C(=O)/C=C/C(=O)Nc2cc(C)on2)C(C(=O)NC2CCCC2)c2ccccc2C)cc1 (centres unmarked),4.64
7,Cn1c(SCC(=O)N2CCCc3ccccc32)nnc1-c1ccccc1,-3.28
8,c1ccc(-c2ccccc2OCCCCn2ccnc2)cc1,5.64
9,CCCC(=O)c1c[nH]c(C(=O)NCCCN2CCOCC2)c1,8.7
10,COc1cc(C(=O)N2CCN(C(=O)c3ccco3)CC2)cc(OC)c1OC,1.52
11,O=C(COC(=O)c1ccc2ncsc2c1)NC(=O)NCc1ccccc1,8.32
12,O=C1C2ON(c3ccccc3)C(c3ccncc3)C2C(=O)N1c1ccc(N2CCOCC2)cc1 (centres unmarked),8.31
13,Cc1occc1-c1nnc(SCC(=O)NCCc2ccccc2)n1Cc1ccccc1,-17.8
14,NC(=O)C1CCN(C(=O)CCSCc2ccccc2)CC1,14
15,COC(=O)c1[nH]c2ccccc2c1NC(=O)CN1CCN(c2cccc(Cl)c2)CC1,12.5
16,Cc1cccc(C)c1NC(=O)CC(C)c1ccccc1 (centres unmarked),5.93
17,Cc1cccn2c(=O)c3cc(C(=O)NCc4ccco4)c(=N)n(C(C)C)c3nc12,-84.9
18,CN(C(=O)COC(=O)/C=C/c1ccc(C(F)(F)F)cc1)c1c(N)n(Cc2ccccc2)c(=O)[nH]c1=O,8.48
19,COc1cccc([C@@H]2CC=C(C(=O)O)[C@H](c3cccc(Cl)c3)N2S(=O)(=O)c2ccc(C)cc2)c1,9.08

row,SMILES,"hERG current change (%, negative = inhibition) at 1uM [%]"
1,O=C(CSCc1ccc(F)cc1)N1CCOCC1,0.424
2,Cc1ccc(S(=O)(=O)N2CCOCC2)cc1C(=O)NCc1ccccn1,6.43
3,Cc1ccc(-n2c3c(cc(C(=O)NC4CCSC4=O)c2=O)C(=O)CC(C)(C)C3)cc1 (centres unmarked),11.6
4,O=C(NCCCN1CCCC1=O)c1ccc(OCc2ccccc2)cc1,9.46
5,Cc1cc(C(=O)COC(=O)c2ccc(NC(=O)CC#N)cc2)c(C)n1CCc1ccc(F)cc1,6.78
6,CCCC[N+](CC#Cc1ccccc1)(CCCC)CCCS(=O)(=O)[O-],18.2
7,O=C(COC(=O)[C@@H]1CCCN1S(=O)(=O)c1ccccc1F)c1ccccc1,4.79
8,CCOc1ccc(OCCOC(=O)C2CCN(S(=O)(=O)c3ccc(C)c(C)c3)CC2)cc1,6.68
9,COc1ccc2c(c1)Cc1sc(NC(=O)c3cccnc3)nc1-2,4.17
10,COc1cc([N+](=O)[O-])ccc1NC(=O)COC(=O)c1n[nH]c2ccccc12,12.1
11,CC1CCCC(NC(=O)c2ccc3snnc3c2)C1C (centres unmarked),16.7
12,COC(=O)CNC(c1ccccc1Cl)c1cc(Br)ccc1NS(=O)(=O)c1ccc(C)cc1 (centres unmarked),5.02
13,O=C(COC(=O)c1cccs1)Nc1ccccc1,11.1
14,O=C(NCCc1ccccc1)c1noc2c1CCCCC2,11.7
15,COCCCNC(=S)NNC(=O)c1ccc(C(C)(C)C)cc1,7.5
16,Cc1cc(C(=O)N2CCCCCC2)cs1,14.9
17,Cc1cccc(NC(=O)C(C)N2C(=O)C3C4CC(C(Br)C4Br)C3C2=O)c1 (centres unmarked),12
18,CSCCC(NC(N)=O)C(=O)Nc1cccc(C#N)c1 (centres unmarked),5.2
